Reference: the supplement of paper PMC12217912
The list shows a part of the results. The full chains were built here from the parent and the listed change. Values near 0.05 are background.

B1: TEV protease; numbered along this chain (parent)
chain: MGESLFKGPRDYNPISSSICHLTNESDGHTTSLYGIGFGPFIITNKHLFRRNNGTLVVQSLHGVFKVKDTTTLQQHLVDGRDMIIIRMPKDFPPFPQKLKFREPQREERICLVTTNFQTKSMSSMVSDTSCTFPSGDGIFWKHWIQTKDGQCGSPLVSTRDGFIVGIHSASNFTNTNNYFTSVPKNFMELLTNQEAQQWVSGWRLNADSVLWGGHKVFMVKPEEPFQPVKEATQL

Variants of: B1
Assay: raw area under fraction-flipped curve 0-4 h after induction (AUC4h, not background-subtracted), DNA-recorder readout of cleavage of the substrate (dimensionless); higher = more cleavage of the substrate by the protease variant
Conditions: temperature: 34 °C; time window: 0-4 h after rhamnose induction
Method: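 In vivo DNA recorder in E. coli TOP10(DE3) ΔrhaA at 34 °C. Each TEVp single-site mutant (parent TEVp 0) is paired with a single-site variant of the 7-mer TEVs (canonical ENLYFQ|S). The substrate sits between flexible linkers in a Bxb1-sfGFP-TEVs-SsrA fusion, so cleavage stabilises Bxb1 and speeds flipping of a recombination array, read by NGS. The value is the raw area under the fraction-flipped curve over 0-4 h after rhamnose induction (AUC4h), with ≥20 reads per time point. It is not background-subtracted; inactive controls average about 0.047.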
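Also: Bxb1 expression induced with 0.2% (w/v) L-rhamnose at OD600 near 0.5, cultures sampled hourly, flipped fraction per protease–substrate barcode pair counted by paired-end Illumina sequencing.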

| Variant | area with substrate ECLYFQS | area with substrate EELYFQS | area with substrate ELLYFQS | area with substrate EMLYFQS | area with substrate EPLYFQS | area with substrate EQLYFQS | area with substrate ESLYFQS | area with substrate EVLYFQS | area with substrate EHLYFQS | area with substrate EILYFQS | area with substrate EKLYFQS | area with substrate ERLYFQS | area with substrate EGLYFQS | area with substrate EWLYFQS | area with substrate EDLYFQS | area with substrate EYLYFQS | area with substrate EFLYFQS | area with substrate ETLYFQS |
| --- | --- | --- | --- | --- | --- | --- | --- | --- | --- | --- | --- | --- | --- | --- | --- | --- | --- | --- |
| MGESLFKGPRDYNPISSSICHLTNESDGHTTSLYGIGFGPFIITNKHLFRRNNGTLVVQSLEGVFKVKDTTTLQQHLVDGRDMIIIRMPKDFPPFPQKLKFREPQREERICLVTTNFQTKSMSSMVSDTSCTFPSGDGIFWKHWIQTKDGQCGSPLVSTRDGFIVGIHSASNFTNTNNYFTSVPKNFMELLTNQEAQQWVSGWRLNADSVLWGGHKVFMVKPEEPFQPVKEATQL [H62E] | 0.127 | 0.0938 | 0.098 | 0.0985 | 0.11 | 0.123 | 0.111 | 0.0946 | – | – | – | – | – | – | – | – | – | – |
| MGESLFKGPRDYNPISSSICHLTNESDGHTTSLYGIGFGPFIITNKHLFRRNNGTLVVQSLHGVFKVKDTSTLQQHLVDGRDMIIIRMPKDFPPFPQKLKFREPQREERICLVTTNFQTKSMSSMVSDTSCTFPSGDGIFWKHWIQTKDGQCGSPLVSTRDGFIVGIHSASNFTNTNNYFTSVPKNFMELLTNQEAQQWVSGWRLNADSVLWGGHKVFMVKPEEPFQPVKEATQL [T71S] | 0.086 | – | – | – | – | – | 0.0836 | 0.0908 | 0.0823 | 0.0748 | 0.1 | 0.0728 | – | – | – | – | – | – |
| MGESLFKGPRDYNPISSSICHLTNESDGHTTSLYGIGFGPFIITNKHLFRRNNGTLVVQSLHGVFKVKATTTLQQHLVDGRDMIIIRMPKDFPPFPQKLKFREPQREERICLVTTNFQTKSMSSMVSDTSCTFPSGDGIFWKHWIQTKDGQCGSPLVSTRDGFIVGIHSASNFTNTNNYFTSVPKNFMELLTNQEAQQWVSGWRLNADSVLWGGHKVFMVKPEEPFQPVKEATQL [D69A] | 0.0896 | – | – | 0.0909 | – | 0.0973 | 0.102 | 0.0672 | – | – | 0.0777 | 0.0898 | 0.0832 | 0.0752 | – | – | – | – |
| MGESLFKGPRDYNPISSSICHLTNESDGHTTSLYGIGFGPFIITNKHLFRVNNGTLVVQSLHGVFKVKDTTTLQQHLVDGRDMIIIRMPKDFPPFPQKLKFREPQREERICLVTTNFQTKSMSSMVSDTSCTFPSGDGIFWKHWIQTKDGQCGSPLVSTRDGFIVGIHSASNFTNTNNYFTSVPKNFMELLTNQEAQQWVSGWRLNADSVLWGGHKVFMVKPEEPFQPVKEATQL [R51V] | 0.0955 | 0.128 | – | 0.131 | 0.127 | – | 0.1 | 0.0874 | – | 0.135 | – | 0.0862 | – | – | 0.135 | 0.134 | – | – |
| MGESLFKGPRDYNPISSSICHLTNESDGHTTSLYGIGFGPFIITNKHLFRTNNGTLVVQSLHGVFKVKDTTTLQQHLVDGRDMIIIRMPKDFPPFPQKLKFREPQREERICLVTTNFQTKSMSSMVSDTSCTFPSGDGIFWKHWIQTKDGQCGSPLVSTRDGFIVGIHSASNFTNTNNYFTSVPKNFMELLTNQEAQQWVSGWRLNADSVLWGGHKVFMVKPEEPFQPVKEATQL [R51T] | 0.0959 | – | – | – | – | – | 0.122 | – | – | 0.15 | – | 0.172 | – | 0.133 | – | – | – | – |
| MGESLFKGPRDYNPISSSICHLTNESDGHTTSLYGIGFGPFIITNKHLFRENNGTLVVQSLHGVFKVKDTTTLQQHLVDGRDMIIIRMPKDFPPFPQKLKFREPQREERICLVTTNFQTKSMSSMVSDTSCTFPSGDGIFWKHWIQTKDGQCGSPLVSTRDGFIVGIHSASNFTNTNNYFTSVPKNFMELLTNQEAQQWVSGWRLNADSVLWGGHKVFMVKPEEPFQPVKEATQL [R51E] | 0.106 | – | 0.113 | 0.118 | 0.12 | – | – | 0.0939 | 0.0867 | 0.088 | 0.0766 | 0.121 | 0.0921 | – | – | 0.114 | 0.101 | 0.123 |
| MGESLFKGPRDYNPISSSICHLTNESDGHTTSLYGIGSGPFIITNKHLFRRNNGTLVVQSLHGVFKVKDTTTLQQHLVDGRDMIIIRMPKDFPPFPQKLKFREPQREERICLVTTNFQTKSMSSMVSDTSCTFPSGDGIFWKHWIQTKDGQCGSPLVSTRDGFIVGIHSASNFTNTNNYFTSVPKNFMELLTNQEAQQWVSGWRLNADSVLWGGHKVFMVKPEEPFQPVKEATQL [F38S] | 0.0823 | 0.0843 | 0.0796 | 0.088 | – | 0.107 | 0.0843 | 0.0756 | 0.0779 | 0.0766 | 0.0894 | 0.0778 | 0.0877 | 0.0791 | 0.0955 | – | 0.0788 | 0.0935 |
| MGESLFKGPRDYNPISSSICHLTNESDGHTTSLYGIGFGPFIITNKHLFRRNNGTLVVQSLHGVFKVSDTTTLQQHLVDGRDMIIIRMPKDFPPFPQKLKFREPQREERICLVTTNFQTKSMSSMVSDTSCTFPSGDGIFWKHWIQTKDGQCGSPLVSTRDGFIVGIHSASNFTNTNNYFTSVPKNFMELLTNQEAQQWVSGWRLNADSVLWGGHKVFMVKPEEPFQPVKEATQL [K68S] | 0.121 | – | 0.0782 | – | – | 0.0821 | 0.1 | – | – | 0.0828 | 0.131 | – | – | 0.0893 | – | – | – | – |
| MGESLFKGPRDYNPISSSICHLTNESDGHTTSLYGIGFGPFIITNKHLFRRNKGTLVVQSLHGVFKVKDTTTLQQHLVDGRDMIIIRMPKDFPPFPQKLKFREPQREERICLVTTNFQTKSMSSMVSDTSCTFPSGDGIFWKHWIQTKDGQCGSPLVSTRDGFIVGIHSASNFTNTNNYFTSVPKNFMELLTNQEAQQWVSGWRLNADSVLWGGHKVFMVKPEEPFQPVKEATQL [N53K] | 0.0768 | 0.0854 | – | 0.0952 | 0.11 | 0.104 | 0.1 | – | 0.0864 | 0.083 | 0.0939 | 0.0862 | 0.0945 | 0.0692 | – | 0.0764 | – | – |
| MGESLFKGPRDYNPISSSICHLTNESDGHTTSLYGIGFGPFIITNKHLFRRNNGWLVVQSLHGVFKVKDTTTLQQHLVDGRDMIIIRMPKDFPPFPQKLKFREPQREERICLVTTNFQTKSMSSMVSDTSCTFPSGDGIFWKHWIQTKDGQCGSPLVSTRDGFIVGIHSASNFTNTNNYFTSVPKNFMELLTNQEAQQWVSGWRLNADSVLWGGHKVFMVKPEEPFQPVKEATQL [T55W] | 0.0849 | – | 0.0868 | 0.114 | 0.109 | 0.121 | – | 0.0818 | – | 0.0931 | 0.0563 | 0.105 | 0.101 | 0.0751 | 0.152 | 0.0788 | – | 0.102 |
